Laboratory results taken from the supplement of paper PMC8728848.
Some of the results follow.

How the values were obtained:
Experiment in all cases: glycan array binding signal (z-score within array); higher = stronger binding
Conditions in all cases: glycan notation: IUPAC condensed, linker removed
[1] = target: Gal(b1-4)Glc
How it was run: (§1)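 The binding signal is a Z-score computed within each array and averaged over linkers. Arrays of the same protein sequence at different concentrations or buffers were also averaged together. Data originate from 3228 arrays in the Consortium for Functional Glycomics database, kept only where the protein sequence was available.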

[2] = target: Gal(b1-4)Glc6S
How it was run: as §1

[3] = target: Gal(b1-4)GlcNAc
How it was run: as §1

[4] = target: Gal(b1-4)GlcNAc(a1-6)Gal(b1-4)GlcNAc
How it was run: as §1

[5] = target: Gal(b1-4)GlcNAc(b1-2)Man
How it was run: as §1

[6] = target: Gal(b1-4)GlcNAc(b1-2)Man(a1-3)Man(b1-4)GlcNAc(b1-4)GlcNAc
How it was run: as §1

[7] = target: Gal(b1-4)GlcNAc(b1-2)Man(a1-3)[Gal(b1-4)GlcNAc(b1-2)Man(a1-6)]Man(b1-4)GlcNAc(b1-4)GlcNAc
How it was run: as §1

[8] = target: Gal(b1-4)GlcNAc(b1-2)Man(a1-3)[Gal(b1-4)GlcNAc(b1-2)Man(a1-6)]Man(b1-4)GlcNAc(b1-4)[Fuc(a1-6)]GlcNAc
How it was run: as §1

[9] = target: Gal(b1-4)GlcNAc(b1-2)Man(a1-3)[Gal(b1-4)GlcNAc(b1-2)Man(a1-6)][Gal(b1-4)GlcNAc(b1-4)]Man(b1-4)GlcNAc(b1-4)[Fuc(a1-6)]GlcNAc
How it was run: as §1

[10] = target: Gal(b1-4)GlcNAc(b1-2)Man(a1-3)[Gal(b1-4)GlcNAc(b1-2)Man(a1-6)][GlcNAc(b1-4)]Man(b1-4)GlcNAc(b1-4)[Fuc(a1-6)]GlcNAc
How it was run: as §1

[11] = target: Gal(b1-4)GlcNAc(b1-2)Man(a1-3)[GlcNAc(b1-2)Man(a1-6)]Man(b1-4)GlcNAc(b1-4)GlcNAc
How it was run: as §1

[12] = target: Gal(b1-4)GlcNAc(b1-2)Man(a1-3)[GlcNAc(b1-4)][Gal(b1-4)GlcNAc(b1-2)Man(a1-6)]Man(b1-4)GlcNAc(b1-4)GlcNAc
How it was run: as §1

[13] = target: Gal(b1-4)GlcNAc(b1-2)Man(a1-3)[Man(a1-6)]Man(b1-4)GlcNAc(b1-4)GlcNAc
How it was run: as §1

[14] = target: Gal(b1-4)GlcNAc(b1-2)Man(a1-6)Man(b1-4)GlcNAc(b1-4)GlcNAc
How it was run: as §1

[15] = target: Gal(b1-4)GlcNAc(b1-2)Man(a1-6)[GlcNAc(b1-2)Man(a1-3)]Man(b1-4)GlcNAc(b1-4)GlcNAc
How it was run: as §1

[16] = target: Gal(b1-4)GlcNAc(b1-2)Man(a1-6)[Man(a1-3)]Man(b1-4)GlcNAc(b1-4)GlcNAc
How it was run: as §1

[17] = target: Gal(b1-4)GlcNAc(b1-2)[Gal(b1-4)GlcNAc(b1-4)]Man(a1-3)[Gal(b1-4)GlcNAc(b1-2)Man(a1-6)]Man(b1-4)GlcNAc(b1-4)GlcNAc
How it was run: as §1

[18] = target: Gal(b1-4)GlcNAc(b1-2)[Gal(b1-4)GlcNAc(b1-4)]Man(a1-3)[Gal(b1-4)GlcNAc(b1-2)[Gal(b1-4)GlcNAc(b1-6)]Man(a1-6)]Man(b1-4)GlcNAc(b1-4)GlcNAc
How it was run: as §1

[19] = target: Gal(b1-4)GlcNAc(b1-2)[Gal(b1-4)GlcNAc(b1-4)]Man(a1-3)[GlcNAc(b1-4)][Gal(b1-4)GlcNAc(b1-2)Man(a1-6)]Man(b1-4)GlcNAc(b1-4)GlcNAc
How it was run: as §1

[20] = target: Gal(b1-4)GlcNAc(b1-2)[Gal(b1-4)GlcNAc(b1-4)]Man(a1-3)[GlcNAc(b1-4)][Gal(b1-4)GlcNAc(b1-2)[Gal(b1-4)GlcNAc(b1-6)]Man(a1-6)]Man(b1-4)GlcNAc(b1-4)GlcNAc
How it was run: as §1

[21] = target: Gal(b1-4)GlcNAc(b1-2)[Gal(b1-4)GlcNAc(b1-6)]Man(a1-6)[Gal(b1-4)GlcNAc(b1-2)Man(a1-3)]Man(b1-4)GlcNAc(b1-4)GlcNAc
How it was run: as §1

[22] = target: Gal(b1-4)GlcNAc(b1-2)[Gal(b1-4)GlcNAc(b1-6)]Man(a1-6)[Gal(b1-4)GlcNAc(b1-2)Man(a1-3)]Man(b1-4)GlcNAc(b1-4)[Fuc(a1-6)]GlcNAc
How it was run: as §1

B1: EULS2 M4 (Oryza sativa) (protein)
chain: MVYCRANPNYAMTARNGAVVLAPANPKDEYQHWIKDMRWSTSIKDEEGYPAFALVNKATGQAIKHSLGQSHPVRLVPYNPEVMDESVLWTESRDVGNGFRCIRMVNNIYLNFDAFHGDKYHGGVRDGTDIVLWKWCEGDSLRWKIQPYYILEQKLISEEDLNSAVDHHHHHH
- glycan array binding signal (z-score) [1]: -0.232
- glycan array binding signal (z-score) [2]: -0.287
- glycan array binding signal (z-score) [3]: 0.042
- glycan array binding signal (z-score) [4]: -0.074
- glycan array binding signal (z-score) [5]: -0.202
- glycan array binding signal (z-score) [6]: 2.57
- glycan array binding signal (z-score) [7]: -0.36
- glycan array binding signal (z-score) [8]: -0.159
- glycan array binding signal (z-score) [9]: 0.055
- glycan array binding signal (z-score) [10]: -0.382
- glycan array binding signal (z-score) [11]: -0.144
- glycan array binding signal (z-score) [12]: -0.477
- glycan array binding signal (z-score) [13]: 7.18
- glycan array binding signal (z-score) [14]: -0.292
- glycan array binding signal (z-score) [15]: -0.606
- glycan array binding signal (z-score) [16]: -0.455
- glycan array binding signal (z-score) [17]: -0.586
- glycan array binding signal (z-score) [18]: -0.546
- glycan array binding signal (z-score) [19]: -0.641
- glycan array binding signal (z-score) [20]: -0.236
- glycan array binding signal (z-score) [21]: -0.498
- glycan array binding signal (z-score) [22]: 0.327
